# In the supplement of paper PMC9446081:
# Hit rate of the full screen: of about 39,000 compounds, about 220 (0.56%) showed activity. The list shows a part of the results.
# Tested on: Escherichia coli K-12 BW25113
# Experiment: relative growth (OD600 normalised to plate interquartile mean) (fraction); higher = less growth inhibition, active = 0.2 or less
# Conditions: 50 µM; LB; incubation time: overnight (16-24 h)
# 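Note: static incubation at 37 °C against the wild-type strain, values averaged over two biological replicates.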
row,SMILES,relative growth
1,C=CCC[C@H](Cc1ccc(F)cc1)C(=O)O[C@@H](CNC(=O)[C@@H](CC=C)CC(=O)N[C@H](CO)Cc1ccccc1)c1ccccc1,inactive: 1.07
2,C[C@@H]1CN([C@H](C)CO)C(=O)c2cc(NS(=O)(=O)c3ccc(F)cc3)ccc2O[C@@H](C)CCCCO[C@H]1CN(C)CC1CCCCC1,inactive: 1.02
3,COc1c(O)cc2c(c1O)[C@@H]1O[C@H](CO)[C@@H](O)[C@H](O)[C@H]1OC2=O,inactive: 1.01
4,C[C@@H]1CN([C@@H](C)CO)S(=O)(=O)c2ccc(Br)cc2O[C@H]1CN(C)C(=O)Cc1cccnc1,inactive: 1.03
5,CC(=O)O[C@H]1C[C@@H](OC(C)=O)C(C)(C)[C@@H]2CC(=O)[C@]3(C)[C@H](CC[C@@]4(C)[C@H](C(=O)O)OC(=O)[C@H]5O[C@]543)[C@@]12C,inactive: 1.02
6,C[C@@H]1CN([C@H](C)CO)S(=O)(=O)c2ccc(Br)cc2O[C@@H]1CN(C)C(=O)NC1CCCC1,inactive: 0.989
7,CC(C)NC(=O)Nc1ccc2c(c1)C(=O)N([C@H](C)CO)C[C@H](C)[C@H](CN(C)CC1CCCCC1)OCCCC[C@H](C)O2,inactive: 0.926
8,C[C@H](CO)N1C[C@H](C)[C@@H](CN(C)C(=O)C2CCCCC2)OCCCC[C@H](C)Oc2ccc(NC(=O)Cc3ccccc3)cc2C1=O,inactive: 1.01
9,C[C@H](CO)N1C[C@H](C)[C@H](CN(C)S(=O)(=O)c2ccccc2)Oc2ncc(Br)cc2C1=O,inactive: 0.989
10,Cc1ccc(S(=O)(=O)Nc2ccc3c(c2)C(=O)N([C@H](C)CO)C[C@@H](C)[C@H](CN(C)Cc2ccc(C(F)(F)F)cc2)OCCCC[C@@H](C)O3)cc1,inactive: 1.07
11,O=C(Cn1ccnc1[N+](=O)[O-])NCCO,inactive: 0.963
12,COc1ccc(S(=O)(=O)N(C)C[C@H]2Oc3ncc(-c4ccncc4)cc3C(=O)N([C@@H](C)CO)C[C@H]2C)cc1,inactive: 0.984
13,CC(C)NC(=O)Nc1cccc2c1O[C@H](CN(C)Cc1ccc(C(=O)O)cc1)[C@@H](C)CN([C@H](C)CO)C2=O,inactive: 1.02
14,C[C@@H]1CN([C@@H](C)CO)C(=O)c2cccc(NC(=O)C3CCOCC3)c2O[C@@H]1CN(C)Cc1ccc2c(c1)OCO2,inactive: 0.999
15,C[C@H]1CN([C@@H](C)CO)C(=O)c2c(c3ccccc3n2C)-c2ccccc2CO[C@H]1CN(C)S(=O)(=O)c1ccc(C(F)(F)F)cc1,inactive: 1.03
16,C[C@@H]1CN([C@@H](C)CO)C(=O)c2cc(NC(=O)CCC(F)(F)F)ccc2O[C@@H](C)CCCCO[C@@H]1CN(C)C(=O)Nc1ccc(F)cc1,inactive: 0.992
17,CC(=O)Nc1c(O)[nH]c(SCC(=O)N2CCOCC2)nc1=O,inactive: 0.908
18,COc1ccc(NC(=O)N(C)C[C@@H]2OCCCC[C@@H](C)Oc3ccc(NS(=O)(=O)c4ccccc4)cc3C(=O)N([C@H](C)CO)C[C@H]2C)cc1,inactive: 1.01
19,COc1ccccc1CN1C(=O)c2ccccc2[C@@]2(Cc3ccccc3N(Cc3ccccc3)C2=O)[C@@H]1c1ccc(CO)cc1,inactive: 0.991
20,COc1ccc(S(=O)(=O)N(C)C[C@@H]2Oc3ccc(N(C)C)cc3CC(=O)N([C@@H](C)CO)C[C@H]2C)cc1,inactive: 1.02

row,SMILES,relative growth
1,C[C@@H]1CN([C@@H](C)CO)C(=O)c2cc(NC(=O)c3ccncc3)ccc2O[C@@H](C)CCCCO[C@H]1CN(C)Cc1ccc(C(F)(F)F)cc1,inactive: 1.01
2,O=C(O)CC(O)(CC(=O)O)C(=O)O,inactive: 1.06
3,C[C@H](CO)N1C[C@H](C)[C@H](CN(C)C(=O)Nc2ccc(C(F)(F)F)cc2)Oc2ncc(/C=C/c3ccccc3)cc2C1=O,inactive: 0.993
4,C[C@@H]1CCCCO[C@H](CN(C)Cc2ccccc2)[C@H](C)CN([C@H](C)CO)C(=O)c2cc(NC(=O)Nc3ccccc3)ccc2O1,inactive: 0.983
5,CCN(CC)CCOC(=O)C(c1ccccc1)C1CCCCC1.Cl (centres undefined),inactive: 0.883
6,C[C@@H]1CCCCO[C@@H](CN(C)S(=O)(=O)c2cn(C)cn2)[C@H](C)CN([C@@H](C)CO)C(=O)c2cc(NC(=O)CCCN(C)C)ccc2O1,inactive: 0.992
7,CON(C)c1nc(Oc2ccc(=O)[nH]n2)nc(N(C)C)n1,inactive: 1.01
8,O=C(C[C@@H]1CC[C@H]2[C@@H](COC[C@H](O)CN2C(=O)Nc2ccc(C(F)(F)F)cc2)O1)NCCc1ccncc1,inactive: 0.961
9,C[C@H](CO)N1C[C@H](C)[C@H](CN(C)Cc2ccc(C(=O)Nc3ccccc3N)cc2)Oc2ccc(NC(=O)Cc3ccccc3)cc2C1=O,inactive: 1.02
10,CN(C)[C@@H](CN)c1cccn1C,inactive: 0.993
11,CC(C)NC(=O)N(C)C[C@H]1Oc2ccc(NC(=O)Cc3ccccc3)cc2C(=O)N([C@H](C)CO)C[C@H]1C,inactive: 1.03
12,C[C@@H]1CN([C@@H](C)CO)C(=O)c2cccc(NC(=O)Nc3cccc4ccccc34)c2O[C@H]1CN(C)S(=O)(=O)c1ccc(F)cc1,inactive: 1.02
13,Cc1cc(C(=O)Nc2cccc3c2O[C@H](CN(C)S(=O)(=O)c2ccc(F)cc2)[C@H](C)CN([C@@H](C)CO)C3=O)n(C)n1,inactive: 1.02
14,O=C(N[C@H]1C=C[C@@H](CC(=O)N2CCOCC2)O[C@@H]1CO)c1ccccn1,inactive: 0.982
15,Cc1ccc(S(=O)(=O)Nc2ccc3c(c2)C(=O)N([C@@H](C)CO)C[C@@H](C)[C@@H](CN(C)C(=O)Nc2ccc(F)cc2)OCCCC[C@H](C)O3)cc1,inactive: 1.04
16,Cc1noc(C)c1NC(=O)N(C)C[C@H]1OCCCC[C@@H](C)Oc2ccc(NS(=O)(=O)c3ccc(Cl)cc3)cc2C(=O)N([C@H](C)CO)C[C@@H]1C,inactive: 0.999
17,N#CC1C(=O)NC(=O)N=C1Nc1ccccc1 (centres undefined),inactive: 0.981
18,C[C@@H]1CN([C@H](C)CO)C(=O)Cc2cc(NS(=O)(=O)c3ccc(F)cc3)ccc2O[C@H]1CN(C)CC1CC1,inactive: 1.03
19,C[C@H](CO)N1C[C@H](C)[C@H](CN(C)S(=O)(=O)c2cn(C)cn2)Oc2c(NC(=O)Nc3ccc(F)cc3)cccc2C1=O,inactive: 1.01
